From publication PMC4336329 (PLoS ONE, 2015)
The whole screen tested about 310,000 compounds, of which about 2,200 (0.71%) showed an effect of 50% or more. The effect is printed as a negative number. The list shows a part of the results.

Biological target: human ether-à-go-go-related gene (hERG) potassium channel (human, UniProt Q12809)
Test: primary screen, population patch clamp on CHO cells stably expressing hERG

Sequence of human ether-à-go-go-related gene (hERG) potassium channel (Q12809 whole entry, looked up): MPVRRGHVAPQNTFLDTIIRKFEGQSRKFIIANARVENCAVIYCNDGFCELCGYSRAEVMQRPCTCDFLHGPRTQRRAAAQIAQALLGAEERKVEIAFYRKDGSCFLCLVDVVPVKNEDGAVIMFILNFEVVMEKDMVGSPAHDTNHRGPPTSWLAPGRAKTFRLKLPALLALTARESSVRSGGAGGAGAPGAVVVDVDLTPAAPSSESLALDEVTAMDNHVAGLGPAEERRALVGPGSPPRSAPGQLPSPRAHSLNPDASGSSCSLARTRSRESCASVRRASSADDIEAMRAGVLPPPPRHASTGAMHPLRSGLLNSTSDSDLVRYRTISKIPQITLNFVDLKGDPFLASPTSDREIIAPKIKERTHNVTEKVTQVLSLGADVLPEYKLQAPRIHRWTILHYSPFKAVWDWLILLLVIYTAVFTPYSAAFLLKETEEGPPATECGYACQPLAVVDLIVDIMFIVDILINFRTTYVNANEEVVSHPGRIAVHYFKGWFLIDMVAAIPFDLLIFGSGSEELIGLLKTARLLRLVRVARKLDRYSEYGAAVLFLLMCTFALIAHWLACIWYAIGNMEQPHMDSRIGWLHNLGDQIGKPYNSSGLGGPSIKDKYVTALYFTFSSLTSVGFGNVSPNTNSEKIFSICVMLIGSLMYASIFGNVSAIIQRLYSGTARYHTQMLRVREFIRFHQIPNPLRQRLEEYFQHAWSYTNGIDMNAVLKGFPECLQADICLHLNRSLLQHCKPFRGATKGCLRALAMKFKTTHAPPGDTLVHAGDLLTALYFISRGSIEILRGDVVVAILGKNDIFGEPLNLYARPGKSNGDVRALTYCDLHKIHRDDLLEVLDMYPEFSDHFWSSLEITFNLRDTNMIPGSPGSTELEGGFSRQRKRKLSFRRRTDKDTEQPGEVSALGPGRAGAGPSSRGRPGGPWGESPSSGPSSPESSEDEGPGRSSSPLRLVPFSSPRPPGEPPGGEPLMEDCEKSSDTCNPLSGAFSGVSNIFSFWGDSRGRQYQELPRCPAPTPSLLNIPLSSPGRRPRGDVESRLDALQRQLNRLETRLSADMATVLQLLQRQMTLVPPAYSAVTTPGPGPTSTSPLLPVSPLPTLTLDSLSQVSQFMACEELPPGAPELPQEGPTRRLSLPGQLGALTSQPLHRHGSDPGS

| SMILES | hERG current change (%, negative = inhibition) at 1uM [%] |
| --- | --- |
| Cc1cccn2c(=O)c(/C=C(\C#N)C(N)=O)c(N3CCN(c4cccc(Cl)c4)CC3)nc12 | 5.3 |
| Cc1cc(N2CCOCC2)nc2ccc(NC(=S)N3CCN(c4ccccc4)CC3)cc12 | 12 |
| Cc1ccc(NC(=O)/C(=C/c2cccc(Br)c2)NC(=O)c2ccco2)cc1 | -20.6 |
| O=C1C2CC=CCC2C(=O)N1c1ccc(NCCc2ccccc2F)c([N+](=O)[O-])c1 (centres unmarked) | 8.82 |
| CCCCn1c(=O)c(C(=O)Nc2cnccn2)c(O)c2ccccc21 | 0.998 |
| O=C(NC1=NCCS1)NC12CC3CC(CC(C3)C1)C2 | 16.6 |
| CCCCCCc1nnc(N)s1 | 3.49 |
| CC(=O)c1ccc(Sc2ccc(C(C)=O)cc2)cc1 | 5.55 |
| COc1ccccc1OCC(=O)Nc1cc(C(F)(F)F)ccc1-n1cncn1 | -10.6 |
| CCc1ccc(CNC(=O)C(=O)NCCc2ccc(OC)c(OC)c2)cc1 | 8.47 |
| Cc1ccc(S(=O)(=O)N2CCCCC2)cc1C(=O)N(C)CCOc1ccccc1 | -13.6 |
| Cc1ccc(S(=O)(=O)NCC(C)n2nc(C)nc2C)cc1 (centres unmarked) | 8.64 |
| O=c1[nH]cnc2cc(Cl)ccc12 | 9.48 |
| COc1ccc(CCNC(=O)CSc2nnc(-c3ccc(F)cc3)o2)cc1OC | 9.32 |
| COC(=O)c1c(C(=O)OC)c(-c2ccc(OC)cc2)n2c1CS(=O)C2 (centres unmarked) | 13.9 |
| Cc1c(C(=O)NCCc2ccc3c(c2)OCCO3)oc2ccccc12 | 0.986 |
| O=C1CC(N2CCC(c3nc4ccccc4[nH]3)CC2)C(=O)N1Cc1ccccc1 (centres unmarked) | -20.6 |
| O=C(O)C(CC1CCCCC1)N1CCS(=O)(=O)CC1 (centres unmarked) | 13.6 |
| Nc1nc(N)nc(-c2cc(F)ccc2O)n1 | 12.1 |
| COCC(C)OC(=O)C(C#N)c1nc2ccccc2nc1N1CCN(Cc2ccccc2)CC1 (centres unmarked) | -3.9 |
| COc1ccccc1C(=O)N1CCN(Cc2ccc3c(c2)OCO3)CC1 | 9.27 |
| Nc1ccc2oc(-c3cccc(Br)c3)nc2c1 | 2.68 |

| SMILES | hERG current change (%, negative = inhibition) at 1uM [%] |
| --- | --- |
| O=C(NCc1ccc2c(c1)OCO2)Nc1ccc(F)cc1 | 1.65 |
| Cc1ccc(NC(=O)CCC(=O)c2ccc(F)cc2)cc1Cl | -2.75 |
| Cc1ccc(C)c(CN2CCC(CNC(=O)Nc3ccc(Cl)cc3)CC2)c1 | -26.8 |
| Cc1ccc(C(=O)N/N=C\c2cccn2C)cn1 | 22.4 |
| Cc1ccc(CNC(=O)c2ccc3c(c2)NC(=O)C(N2CCOCC2)S3)cc1 (centres unmarked) | 9.54 |
| CCOC(=O)c1csc(NC(=O)c2ccc(S(=O)(=O)N(C)C)cc2)n1 | 15.4 |
| CCCC(=O)Nc1ccc(-c2csc(-c3cccnc3)n2)cc1 | 4.25 |
| COc1ccc(OC)c(NC(=O)COC(=O)Cc2ccc(-c3ccccc3)cc2)c1 | 12.8 |
| Cc1cccc(NC(=O)/C(C#N)=C/c2ccc[nH]2)c1C | 24.2 |
| Cc1ccc(Cn2cc(C(=O)c3ccc(F)cc3)c(=O)c3cc4c(cc32)OCCO4)cc1 | -3.62 |
| O=C(Nc1ccccc1)c1cc(Cl)nc2ccccc12 | 10.9 |
| CC(=C\C(=O)O)/C(=C\c1cccc2ccccc12)C(=O)O | 6.73 |
| COc1cc(NC(=O)c2ccc(C)cc2C)ccc1NC(=O)c1cc2ccccc2o1 | 13.1 |
| O=C(NCc1ccccc1)c1c[nH]c2cc3c(cc2c1=O)OCCO3 | 8 |
| O=C(Cc1ccccc1)N/N=C/c1cc(Br)c(Br)o1 | 20.6 |
| Cc1ccc(S(=O)(=O)Nc2ccccc2C(=O)N2CCCCC2C)c(C)c1NS(C)(=O)=O (centres unmarked) | 11.1 |
| O=C(CN(Cc1ccco1)C(=O)c1ccc(Cl)cc1)Nc1ccc(Cl)c(Cl)c1 | 6.11 |
| COc1cccc(OCCn2cc(C(C)=O)c3ccccc32)c1 | 10.5 |
| CCn1c(SCC(=O)c2c[nH]c3ccccc23)nc2cc(S(=O)(=O)N3CCOCC3)ccc21 | 11.4 |
| Cc1cccc2sc(NC(=O)C3CCN(C(=O)c4ccco4)CC3)nc12 | -9.27 |
| COc1ccccc1C(=O)c1nc2ccccc2n1C | 11 |
| COC(=O)Cc1ccc(NC(=S)NCc2ccco2)cc1 | 22.8 |
